{
  "source": "paper PMC4336329",
  "about": "(PLoS ONE, 2015)",
  "note": "In all, about 310,000 compounds went through this assay and about 14,000 (4.5%) showed an effect of 50% or more. The effect is printed as a negative number. The list shows a part of the results.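 Note: peak tail current of the secondary pulse compared with the same well before compound.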",
  "data": [
    {"target": "human ether-à-go-go-related gene (hERG) potassium channel (human, UniProt Q12809)", "sequence (Q12809 whole entry, looked up)": "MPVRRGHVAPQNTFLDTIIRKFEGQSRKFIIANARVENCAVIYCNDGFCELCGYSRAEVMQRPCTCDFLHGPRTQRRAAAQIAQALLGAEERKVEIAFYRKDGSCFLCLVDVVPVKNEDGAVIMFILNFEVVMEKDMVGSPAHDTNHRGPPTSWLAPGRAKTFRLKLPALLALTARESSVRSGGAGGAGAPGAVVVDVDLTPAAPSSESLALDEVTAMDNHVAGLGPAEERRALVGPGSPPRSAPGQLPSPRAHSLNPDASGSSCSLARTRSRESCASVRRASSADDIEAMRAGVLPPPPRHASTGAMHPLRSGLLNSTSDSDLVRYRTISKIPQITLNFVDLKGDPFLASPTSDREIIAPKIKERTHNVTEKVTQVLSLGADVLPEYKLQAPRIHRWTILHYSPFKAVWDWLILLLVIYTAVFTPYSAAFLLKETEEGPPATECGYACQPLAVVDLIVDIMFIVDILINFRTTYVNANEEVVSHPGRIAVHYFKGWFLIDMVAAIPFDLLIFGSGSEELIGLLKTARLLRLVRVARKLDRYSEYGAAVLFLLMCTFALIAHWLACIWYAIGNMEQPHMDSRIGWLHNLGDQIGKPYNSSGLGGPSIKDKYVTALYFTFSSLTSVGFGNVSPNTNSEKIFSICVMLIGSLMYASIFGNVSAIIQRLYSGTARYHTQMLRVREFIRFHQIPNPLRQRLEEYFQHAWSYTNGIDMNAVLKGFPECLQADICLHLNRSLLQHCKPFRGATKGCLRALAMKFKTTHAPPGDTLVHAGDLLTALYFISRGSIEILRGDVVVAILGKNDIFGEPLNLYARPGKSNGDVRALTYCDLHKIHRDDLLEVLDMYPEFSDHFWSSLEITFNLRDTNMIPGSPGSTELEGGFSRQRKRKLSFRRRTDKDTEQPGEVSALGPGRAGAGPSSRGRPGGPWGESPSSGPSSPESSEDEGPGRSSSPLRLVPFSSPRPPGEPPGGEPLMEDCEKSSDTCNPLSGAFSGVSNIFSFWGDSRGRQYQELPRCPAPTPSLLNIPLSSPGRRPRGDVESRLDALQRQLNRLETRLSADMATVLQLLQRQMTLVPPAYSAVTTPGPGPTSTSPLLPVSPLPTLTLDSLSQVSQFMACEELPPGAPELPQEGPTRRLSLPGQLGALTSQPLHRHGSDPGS", "assay": "primary screen, population patch clamp on CHO cells stably expressing hERG", "units": {"hERG current change (%, negative = inhibition) at 10uM": "%"}, "values": [
      {"smiles": "COc1cccc(C(=O)N2c3cc(C)ccc3OCC2C(C)(C)C)c1", "note": "(stereo not shown)", "hERG current change (%, negative = inhibition) at 10uM": 12.2},
      {"smiles": "COc1ccc(C2NC(=S)NC(C)=C2C(=O)Nc2ccccn2)cc1", "note": "(stereo not shown)", "hERG current change (%, negative = inhibition) at 10uM": -0.0177},
      {"smiles": "COc1ccccc1OCC(=O)N1CCN(c2ccccc2OC)CC1", "hERG current change (%, negative = inhibition) at 10uM": 1.3},
      {"smiles": "COc1ccc2nc(C3CCCCC3)c3c(c2c1)CCC3", "hERG current change (%, negative = inhibition) at 10uM": 8.35},
      {"smiles": "c1ccc2c(c1)CCN(c1nc(CN3CCOCC3)nc3sc4c(c13)CCCC4)C2", "hERG current change (%, negative = inhibition) at 10uM": -60.2},
      {"smiles": "CCC1CN(C(=O)NCc2ccc(F)cc2)c2cc(Cl)ccc2O1", "note": "(stereo not shown)", "hERG current change (%, negative = inhibition) at 10uM": 12.5},
      {"smiles": "O=C(O)c1ccc(Cn2nnc3sc4c(c3c2=O)CCCC4)cc1", "hERG current change (%, negative = inhibition) at 10uM": 16.8},
      {"smiles": "O=C(NC1=NCCCCC1)c1cccc2ccccc12", "hERG current change (%, negative = inhibition) at 10uM": 9.26},
      {"smiles": "CCCCN(C(=O)c1ccc([N+](=O)[O-])s1)c1c(N)n(CCCC)c(=O)[nH]c1=O", "hERG current change (%, negative = inhibition) at 10uM": -12.9},
      {"smiles": "CCCCN1CC(=O)N2[C@H]3c4ccccc4OC[C@@H]3[C@H](c3ccccc3)[C@]2(C)C1=O", "hERG current change (%, negative = inhibition) at 10uM": -19.9},
      {"smiles": "Clc1ccc(CSc2nnc3c(n2)[nH]c2ccccc23)cc1", "hERG current change (%, negative = inhibition) at 10uM": -1.62},
      {"smiles": "COc1ccc2c(c1)CCCC21NC(=O)N(CC(N)=O)C1=O", "note": "(stereo not shown)", "hERG current change (%, negative = inhibition) at 10uM": -6.13},
      {"smiles": "Cc1cccn2c(=O)c(C=O)c(Sc3ncccn3)nc12", "hERG current change (%, negative = inhibition) at 10uM": 18.6},
      {"smiles": "CCCc1c(C)nc(N2CCN(c3ccccc3F)CC2)[nH]c1=O", "hERG current change (%, negative = inhibition) at 10uM": 23},
      {"smiles": "COc1ccc(CN2CCC(Cc3ccccc3)CC2)c(C)c1C", "hERG current change (%, negative = inhibition) at 10uM": -23},
      {"smiles": "Cn1nnnc1SCC(=O)c1cccs1", "hERG current change (%, negative = inhibition) at 10uM": 3},
      {"smiles": "CCOC(=O)C1C(=O)OC(C)(C)C1C(C)C(=O)c1ccc(C)cc1C", "note": "(stereo not shown)", "hERG current change (%, negative = inhibition) at 10uM": -33.2},
      {"smiles": "COc1cc(C)c(S(=O)(=O)NCc2cccnc2)cc1C", "hERG current change (%, negative = inhibition) at 10uM": 15.7},
      {"smiles": "CC(=O)c1cccc(NC(=O)COC(=O)c2n[nH]c3ccccc23)c1", "hERG current change (%, negative = inhibition) at 10uM": 3.96},
      {"smiles": "Cc1ccc(S(=O)(=O)Nc2ccc3nc(-c4cccn4C)[nH]c3c2)cc1", "hERG current change (%, negative = inhibition) at 10uM": -79.3},
      {"smiles": "COc1ccccc1NC=C1C(=O)OC(C)(C)OC1=O", "hERG current change (%, negative = inhibition) at 10uM": -24},
      {"smiles": "O=C1C2CCCN2C(=O)N1CCCCN1CCN(c2ccccc2)CC1", "note": "(stereo not shown)", "hERG current change (%, negative = inhibition) at 10uM": -21.6},
      {"smiles": "Cn1c(SCc2ccccc2Cl)nnc1-c1cnccn1", "hERG current change (%, negative = inhibition) at 10uM": 8.99},
      {"smiles": "CCN(CC(=O)Nc1ccc(S(=O)(=O)N2CCCC2)cc1)CC(=O)Nc1cccc(OC)c1", "hERG current change (%, negative = inhibition) at 10uM": 16},
      {"smiles": "Nc1ccc(C(=O)OCCCc2nc3cc4ccccc4cc3[nH]2)cc1", "hERG current change (%, negative = inhibition) at 10uM": -33},
      {"smiles": "COc1cc2cc(C#N)c(SCC(=O)Nc3cc(C)on3)nc2cc1OC", "hERG current change (%, negative = inhibition) at 10uM": 4.1},
      {"smiles": "COc1cccc(OC)c1C(=O)N1CCN(c2c(Cc3ccccc3)c(C)nc3ncnn23)CC1", "hERG current change (%, negative = inhibition) at 10uM": -16},
      {"smiles": "Cc1ccccc1CNC(=O)CCC(=O)N1CCOc2ccccc21", "hERG current change (%, negative = inhibition) at 10uM": 7.41},
      {"smiles": "CC1(NC(=O)CCc2nc3ccccc3c(=O)[nH]2)CCS(=O)(=O)C1", "note": "(stereo not shown)", "hERG current change (%, negative = inhibition) at 10uM": -3.51},
      {"smiles": "O=C(c1cccc(-c2ccccc2F)c1)N1CC[C@@H](N2CCC(O)CC2)[C@H](O)C1", "hERG current change (%, negative = inhibition) at 10uM": -17.7},
      {"smiles": "Cc1cc(=O)[nH]c(NN=C2C3CC4CC(C3)CC2C4)n1", "hERG current change (%, negative = inhibition) at 10uM": -1.08},
      {"smiles": "COc1ccc(S(=O)(=O)N2CCC3(CC2)OCCN3S(=O)(=O)c2cccs2)cc1", "hERG current change (%, negative = inhibition) at 10uM": -23.8},
      {"smiles": "Cc1sc2c(c1C)c(=O)n(-c1cccc(C(F)(F)F)c1)c(=O)n2CC(=O)NCc1ccco1", "hERG current change (%, negative = inhibition) at 10uM": 10.4},
      {"smiles": "CC(=O)c1cc(C#N)c(SCc2ccc(F)cc2)nc1C", "hERG current change (%, negative = inhibition) at 10uM": 10.5},
      {"smiles": "Cc1ccc(C23CC4CC(CC(CC(=O)NC(C)(C)CO)(C4)C2)C3)cc1", "hERG current change (%, negative = inhibition) at 10uM": 11.7},
      {"smiles": "CC(C)CN1C(=O)C(=O)N(CC(=O)NCc2ccc3c(c2)OCO3)C1=O", "hERG current change (%, negative = inhibition) at 10uM": 10.4},
      {"smiles": "O=C(Nc1ccc(Cl)c(Cl)c1)Nc1ccccn1", "hERG current change (%, negative = inhibition) at 10uM": 2.95},
      {"smiles": "CCOC(=O)c1c(C)nc2sc(C(N)=O)c(N)c2c1-c1ccc(OC)cc1", "hERG current change (%, negative = inhibition) at 10uM": 3.47},
      {"smiles": "O=C1O[C@@H](c2ccc(O)cc2)Cc2cccc(O)c21", "hERG current change (%, negative = inhibition) at 10uM": 12.1},
      {"smiles": "Cc1cccc(OCC(O)CN2CCOCC2)c1.Cl", "note": "(stereo not shown)", "hERG current change (%, negative = inhibition) at 10uM": 10.9},
      {"smiles": "Cc1cccc(OCC(=O)Nc2ccc(C(=O)c3ccc(C(=O)O)cc3)cc2)c1", "hERG current change (%, negative = inhibition) at 10uM": 1.93},
      {"smiles": "CC1CCCCC1n1c(=S)[nH]c2ccccc2c1=O", "note": "(stereo not shown)", "hERG current change (%, negative = inhibition) at 10uM": 2.97},
      {"smiles": "CCN(CC)S(=O)(=O)c1cc(NS(=O)(=O)c2c(Cl)cccc2Cl)ccc1C", "hERG current change (%, negative = inhibition) at 10uM": -33.6}
    ]}
  ]
}
